Whole data set: some 110,000 compounds, median “z-score” near -0.1, cut for the highest 2% near 2. Some of the results follow.
Target: Metabotropic glutamate receptor 8 (Rattus norvegicus) (UniProt P70579)
Experiment: rat mGluR8 modulators via GIRK flux, primary screen, cell-based, thallium flux, HTS (AID 488969)
Conditions: HEK293 rat mGluR8, GIRK (G protein-gated inwardly rectifying potassium channel) thallium flux, FluoZin2; at 10 µM; stronger effect = higher value; submaximal glutamate (EC20) added with thallium

Chain of UniProt P70579 (P70579 whole entry, looked up): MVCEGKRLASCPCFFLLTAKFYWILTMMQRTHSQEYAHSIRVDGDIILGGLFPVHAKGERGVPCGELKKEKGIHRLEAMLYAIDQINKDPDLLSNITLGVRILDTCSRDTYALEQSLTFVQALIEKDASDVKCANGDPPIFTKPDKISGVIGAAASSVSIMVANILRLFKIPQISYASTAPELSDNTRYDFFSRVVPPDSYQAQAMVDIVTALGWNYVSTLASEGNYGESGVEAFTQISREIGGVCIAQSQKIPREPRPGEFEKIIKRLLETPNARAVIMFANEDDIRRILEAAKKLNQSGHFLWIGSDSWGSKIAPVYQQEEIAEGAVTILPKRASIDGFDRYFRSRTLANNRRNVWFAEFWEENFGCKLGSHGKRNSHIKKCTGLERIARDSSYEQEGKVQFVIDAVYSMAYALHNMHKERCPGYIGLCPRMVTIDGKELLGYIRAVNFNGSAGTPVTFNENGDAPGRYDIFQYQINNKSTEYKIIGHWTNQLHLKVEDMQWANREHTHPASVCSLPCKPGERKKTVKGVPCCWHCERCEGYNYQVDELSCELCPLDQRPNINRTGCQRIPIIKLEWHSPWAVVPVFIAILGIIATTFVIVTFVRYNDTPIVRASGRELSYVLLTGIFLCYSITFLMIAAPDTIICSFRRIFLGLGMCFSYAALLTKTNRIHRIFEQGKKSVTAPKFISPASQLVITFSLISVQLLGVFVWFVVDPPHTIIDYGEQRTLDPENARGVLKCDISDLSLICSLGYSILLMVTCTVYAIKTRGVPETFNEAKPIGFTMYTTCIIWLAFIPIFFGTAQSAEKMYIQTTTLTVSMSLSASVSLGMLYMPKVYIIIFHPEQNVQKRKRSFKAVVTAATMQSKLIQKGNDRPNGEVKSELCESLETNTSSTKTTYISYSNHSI

| Structure (SMILES) | z-score |
| --- | --- |
| O=C(COC(=O)c1ccc(Br)o1)NCc1ccco1 | 0.0551 |
| O=C(COC(=O)COc1ccccc1[N+](=O)[O-])Nc1ccc(S(=O)(=O)N2CCCCC2)cc1 | -0.317 |
| CC(C)Oc1ccc(C(=O)NCc2ccco2)cc1 | -0.396 |
| Cc1nn(-c2ccccc2)c(C)c1/C=C/C(=O)OC(C)C(=O)Nc1ncc(Cl)cc1Cl (stereo unspecified) | -0.134 |
| CCC(C)c1ccc(NC(=O)COC(=O)C2=COCCO2)cc1 (stereo unspecified) | 0.095 |
| C=CCNS(=O)(=O)c1cccc(C(C)=O)c1 | -0.161 |
| Cc1cc(Nc2ccc(F)cc2Cl)n2nc(C)nc2n1 | 0.452 |
| COc1ccc(C(C)NC(=O)c2cccc([N+](=O)[O-])c2)cc1OC (stereo unspecified) | 0.0831 |
| NC(=O)c1ccsc1NC(=O)COC(=O)C1CCCN1C(=O)c1cccs1 (stereo unspecified) | -0.196 |
| CCC(C)C(=O)Nc1cc([N+](=O)[O-])ccc1Cl (stereo unspecified) | -0.229 |
| COc1ccc(NC(=O)c2cc3c(Cl)nc4ccccc4c3s2)c(OC)c1 | -0.0917 |
| O=C(NCc1ccco1)c1ccc(Cn2c(=O)c3ccccc3n(Cc3cccc(Cl)c3)c2=O)cc1 | -0.159 |
| CCCc1nc2c(nnn2Cc2ccccc2)c(=O)[nH]1 | -0.0649 |
| O=C(CSc1ncccn1)N1CCN(Cc2ccccc2)CC1 | 0.285 |
| CCn1c(C)c(CCC(=O)O)c(=O)n2nc(-c3ccccc3OC)cc12 | 0.435 |
| CC1CCN(c2nc3ccccc3nc2N2CCC(C)CC2)CC1 | -0.169 |
| Cc1ccccc1NC(=S)NNc1ncc(C(F)(F)F)cc1Cl | 0.522 |
| COc1ccccc1N1CCN(C(=O)CN(c2ccccc2OC)S(=O)(=O)c2ccccc2)CC1 | -0.359 |
| Cc1noc(C)c1S(=O)(=O)N1CCC(C(=O)N2CCC(C)CC2)CC1 | -0.251 |
| CCCCc1ccc(/C=C2\C(=O)c3ccccc3C(O)=C2C(=O)OCC)cc1 | 0.193 |
| Cc1nnc(SCC(=O)c2cc(C)n(-c3ccc4c(c3)OCO4)c2C)s1 | 0.0461 |
| CCN(CC(=O)Nc1ccccc1Br)Cc1nc2ccccc2c(=O)[nH]1 | -0.227 |
| COC(=O)CSc1snnc1-c1ccc(Cl)c(Cl)c1 | 0.058 |
| Nc1nnc(SCC(=O)NN2C(=O)NC3(CCCCC3)C2=O)s1 | -0.0682 |

| Structure (SMILES) | z-score |
| --- | --- |
| CCOc1ccc2c(c1)c(N=NC(=N)N)c(O)n2C | -0.224 |
| CC1CCN(S(=O)(=O)c2ccc(Cl)cc2)CC1 | 0.268 |
| COc1ccc(C(=O)Nc2nnc(-c3ccco3)s2)cc1 | -0.0428 |
| Cc1ccc(-n2c(Cn3nc(C(F)(F)F)cc3C)n[nH]c2=S)cc1 | 0.00739 |
| O=C(NCc1ccco1)c1cc2sccc2n1Cc1ccc(F)cc1 | -0.659 |
| CNCCCOc1cccc(OC(C)C)c1 | -0.272 |
| O=C(COC(=O)/C=C/c1ccccc1Cl)NC(=O)Cc1ccccc1 | -0.122 |
| COc1ccc(CCNC(=O)c2nnn(-c3ccc4c(c3)OCCO4)c2N)cc1OC | -0.202 |
| CCCCC(NC(=O)c1ccccc1)C(=O)OCC(=O)N1c2ccccc2Sc2ccccc21 (stereo unspecified) | -0.405 |
| CCc1ccccc1NC(=O)CN(C)C(=O)CSc1nn(-c2ccc(F)cc2)c(=S)s1 | 0.81 |
| O=[N+]([O-])c1cccc(N/N=C/c2cccc3ccccc23)c1 | 0.768 |
| COc1ccc(-c2nc(C#N)c(NCc3ccccc3Cl)o2)cc1 | 0.523 |
| Cc1ccc(-c2nc(CSc3nc4ccccc4c(=O)n3C)cs2)cc1 | -0.0673 |
| Cc1ccc(/C=C2\Oc3cc(OC(=O)N4CCOCC4)ccc3C2=O)cc1 | -0.103 |
| CC(=O)N1N=C(c2ccc(C)o2)CC1c1ccc(F)cc1 (stereo unspecified) | -0.332 |
| CC(C)(C)N1C(=O)c2ccccc2NC(=O)N1Cc1ccccc1 | 0.185 |
| CC(C)N(Cc1nnc(-c2ccccc2Cl)o1)C(=O)c1cccc(C#N)c1 | 0.0421 |
| O=C(CS(=O)(=O)c1ccc2ccccc2c1)Nc1ccccc1Cl | -0.351 |
| c1ccc(Cn2nnc3c(N4CCCCCC4)ncnc32)cc1 | -2.1 |
| c1cc(C2OCCN2CC2COC3(CCCC3)O2)ccn1 (stereo unspecified) | 0.32 |
| Cc1sc2c(c1C)c(=O)n(-c1ccccc1)c1nnc(C)n21 | -1.09 |
| O=C(O)c1cc2c(ccc3ccccc32)oc1=O | -0.496 |
| CC1=C(C)CS(=O)N(c2ccc(S(N)(=O)=O)cc2)C1 (stereo unspecified) | -0.403 |
| CCOC(=O)c1c(NC=O)sc2c1CCC2 | -0.85 |

| Structure (SMILES) | z-score |
| --- | --- |
| Cc1ccc(C2CCN(C(=O)Nc3ccccc3)C2)cc1 (stereo unspecified) | -0.224 |
| Cc1c(CCO)c(=O)n(C)n1C(=O)c1ccc(F)cc1 | 0.0927 |
| N#C/C(=C\c1cn(CCOc2ccccc2)c2ccccc12)C(=O)NCC1CCCO1 (stereo unspecified) | -0.29 |
| Cc1cccc(-c2nc(NCCCN3CCOCC3)c3ccccc3n2)c1 | -0.137 |
| COC(=O)c1cn(CCOc2ccccc2OC)c2ccccc12 | -0.227 |
| Cc1ncc(C[n+]2csc(CCOC(=O)CC3C4CC5CC(C4)CC3C5)c2C)c(N)n1 (stereo unspecified) | 0.433 |
| COc1cccc2cc(C(=O)N3CCN(C45CC6CC(CC(C6)C4)C5)CC3)c(=O)oc12 | 0.00721 |
| O=C(CCN1CCN(CC(=O)Nc2ccccc2F)CC1)Nc1ccccc1F | -0.938 |
| C=CCn1c(SCC(=O)N2CC(=O)Nc3ccccc32)nc2scc(-c3ccccc3)c2c1=O | 0.252 |
| C=CCn1c(COc2ccccc2C)nnc1SCC(=O)O | 0.662 |
| Cc1cccc(-c2nc3cc(NC(=O)C4CCCO4)ccc3o2)c1 (stereo unspecified) | -0.137 |
| Fc1ccc(Sc2cc(Cl)c(-c3ccccc3)nn2)cc1 | -1.58 |
| O=C(COC(=O)c1ccc(NS(=O)(=O)c2ccc3c(c2)OCCO3)cc1)NCC1CCCO1 (stereo unspecified) | 0.0379 |
| COC(=O)c1ccc(NC(=O)N2CCC(O)(c3cccnc3)CC2)cc1 | 0.813 |
| CNC(=O)c1c(O)c2cccc3c2n(c1=O)CC3 | 0.613 |
| CCOc1cc(N2CCOCC2)c(OCC)cc1NC(=O)COc1ncnc2ccc(Br)cc12 | -0.176 |
| Cc1nnc(SCc2cc(=O)[nH]c(N3CCN(Cc4ccccc4)CC3)n2)s1 | -0.0743 |
| CCOC(=O)c1cc(-c2ccc(N)cc2)sc1N | -1.02 |
| CCCCCN1CC(O)=C(c2nc(-c3ccc(Cl)cc3)cs2)C1=N | 0.807 |
| CC1(C)C2CC=C(/C=N/n3cnnc3)C1C2 (stereo unspecified) | 2 |
| Cc1ccc(S(=O)(=O)c2ccc(Oc3cccc(C)c3)cc2)cc1 | -0.0386 |
| O=C(CSc1nc2ccccc2o1)Nc1cc(C(F)(F)F)ccc1N1CCOCC1 | 0.0658 |
| COC(=O)c1c(NC(NC(C)=O)C(Cl)(Cl)Cl)sc2c1CCCC2 (stereo unspecified) | -0.201 |

Reference: PubChem BioAssay AID488969 (Vanderbilt High Throughput Screening Facility, 2010)
